Some of the results follow. At the low end of the ranking the order means little.
Target: T1, GST-Rok-C97-191 (UniProt O34857)
T1 sequence: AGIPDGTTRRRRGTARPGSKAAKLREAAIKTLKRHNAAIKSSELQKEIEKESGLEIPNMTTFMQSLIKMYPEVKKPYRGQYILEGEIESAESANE
Assay: protein binding microarray;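 note: rank score from −0.5 (least bound) to 0.5 (best bound)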
Details: Rok is a gene silencer of Bacillus subtilis; high values mean tight binding; most listed sequences are background and not binding sites; double strand, one strand shown

| Sequence | binding signal [E-score] |
| --- | --- |
| AGGCATTC | -0.183 |
| GAGCTGCA | -0.0345 |
| CCCCCCAC | -0.291 |
| AGGGCCCC | -0.412 |
| CCCGGCCA | -0.346 |
| TGAGTACA | 0.0908 |
| ACGCGATG | 0.0782 |
| CGAAATTC | 0.254 |
| GATGTGCA | -0.0513 |
| CACGTTGG | -0.00278 |
| AGCCAGTA | -0.181 |
| AGCAATAT | 0.228 |
| ACCTTCCC | -0.197 |
| ACCGTAGG | -0.217 |
| ATGAGCTC | -0.186 |
| ATGCCGAC | -0.152 |
| AGCGGTGG | -0.137 |
| AATCTTGC | -0.0586 |
| AAATGTAG | 0.286 |
| AAACATCG | -0.13 |
| CCCTGAAA | -0.0357 |
| CCCACCGC | -0.257 |
| AATCTTAA | 0.104 |
| ACGGAACG | -0.0415 |
| GCATGCGA | -0.374 |

| Sequence | binding signal [E-score] |
| --- | --- |
| CGATAGAC | 0.063 |
| AAGAGTCT | -0.0684 |
| TCCCTAGA | 0.0553 |
| AACGGCGA | -0.284 |
| CACAACTG | -0.115 |
| TACGCCGA | -0.215 |
| GCAAGGAC | -0.146 |
| GACGTTCC | -0.148 |
| AAACATAA | 0.23 |
| CGTTCTCA | 0.119 |
| GTAGCGTA | 0.275 |
| CCTCTGCG | -0.162 |
| AGTAGATA | 0.456 |
| CGCGATGC | -0.174 |
| AATTTCCT | 0.16 |
| GGAACTCC | -0.0369 |
| ATTACCAA | 0.333 |
| CTAGCTTC | 0.12 |
| ACAACTTG | 0.173 |
| CGCTGCGC | -0.18 |
| AGGACATA | 0.0835 |
| TCGCTTAA | 0.0476 |
| CCGTCTTC | -0.0841 |
| ACCAATAG | 0.123 |
| CTCCCCGA | -0.265 |

| Sequence | binding signal [E-score] |
| --- | --- |
| CCGAAGTC | -0.0808 |
| TACACCGA | -0.0823 |
| GAGCGGCA | -0.331 |
| AAGGCTGG | -0.169 |
| AGAAGTGC | 0.116 |
| CCGCGAGA | -0.243 |
| ACGGACTC | -0.223 |
| GGATGCTA | 0.172 |
| ACCTCGGA | 0.0232 |
| AAGGGGCG | -0.409 |
| ATTACAGG | 0.0672 |
| ACCCATCG | -0.13 |
| TTATAGAA | 0.19 |
| GCTCGCAA | -0.145 |
| AGTCAAGG | -0.145 |
| CCAGGCGC | -0.22 |
| AGAAAAAC | 0.106 |
| CGATAGTC | -0.0434 |
| CTTATTAC | 0.332 |
| GGTGCACC | -0.301 |
| ACTTCTGA | 0.0382 |
| CGGCGATA | 0.101 |
| GTATGAAC | 0.0892 |
| AGTCATGG | -0.0208 |
| CCAGGTGC | -0.311 |

| Sequence | binding signal [E-score] |
| --- | --- |
| CTACTCCC | 0.0937 |
| AGATTGCC | -0.0861 |
| ACCGTAGC | -0.0564 |
| AGTGGTGA | 0.0302 |
| ACAAGCGA | -0.172 |
| GGCCGAAC | -0.283 |
| AGCTGAAG | 0.097 |
| ACACCAGA | 0.126 |
| GTTGTAAA | 0.271 |
| CGGACCGA | -0.0489 |
| AGTCGCTA | 0.1 |
| CCCGCATA | -0.124 |
| CTGCCCCC | -0.352 |
| AAGCAGGG | -0.181 |
| CGCGGTCC | -0.216 |
| GTAAATAA | 0.28 |
| GCCCTATA | -0.0126 |
| CTTTTTTC | 0.0492 |
| CTCTCTGC | -0.0591 |
| TTAGAGAA | -0.0283 |
| GATGCCCC | -0.189 |
| AACTTACC | 0.0708 |
| GCCCGCTA | -0.113 |
| AGTGCAAG | 0.113 |
| ACATAAGT | 0.137 |

| Sequence | binding signal [E-score] |
| --- | --- |
| AGTGTGTC | -0.118 |
| GAGTGTCA | -0.0802 |
| ACGGCCCT | -0.204 |
| CCAGCTCA | 0.0137 |
| AACACGCG | -0.134 |
| CTTTCCAA | -0.223 |
| AGACAACT | -0.0783 |
| GAGGTCAC | -0.279 |
| GTGGAACA | -0.175 |
| ACACAGGA | -0.181 |
| TGGTGCAA | -0.0495 |
| GGTGAACA | 0.0462 |
| ACAGCGAC | -0.042 |
| AGCGGGTG | -0.207 |
| CCCATCTA | 0.145 |
| AATAAAAA | 0.295 |
| ATTGATTG | -0.0735 |
| CTGTAAAG | 0.00839 |
| ACTCGACT | -0.0495 |
| GTTATCAA | 0.268 |
| CATGGAAG | -0.104 |
| CAGCGATA | 0.135 |
| ACGGTAAC | 0.0765 |
| CATGAGGA | -0.112 |
| CACAGTGG | -0.147 |

| Sequence | binding signal [E-score] |
| --- | --- |
| AGTTGATA | 0.161 |
| AATCCGTA | 0.14 |
| AAGTCATA | -0.0251 |
| CATCCATA | 0.0697 |
| CAATGTAC | 0.204 |
| GAATAAAC | 0.0598 |
| GTCTAGAA | -0.0641 |
| ACAGGCGC | -0.0721 |
| TAGGACGA | -0.213 |
| CGGTCGCA | -0.0742 |
| AGGCCGCA | -0.381 |
| TCACAGCA | -0.0793 |
| CTTAGATA | 0.244 |
| CGATGTCC | -0.128 |
| CGAGTCGC | -0.117 |
| CCCGCGAC | -0.282 |
| CGCCTACC | -0.059 |
| CTAACGAG | 0.12 |
| ATTACAGA | 0.216 |
| CCCTCGCA | -0.231 |
| AAGTCGCC | -0.103 |
| AAGTTGTG | 0.0629 |
| ACATCGGG | -0.168 |
| AACAATTC | 0.118 |
| ATACGTCC | 0.049 |

| Sequence | binding signal [E-score] |
| --- | --- |
| CATGGGAC | -0.0494 |
| ATGCAGTC | -0.0482 |
| GGGGTCTA | -0.3 |
| CATGTAAA | 0.25 |
| ACTAGCCT | 0.0922 |
| ATCAGTAA | 0.225 |
| AAGCTCGA | -0.164 |
| CCTATATA | 0.283 |
| TCTAAGCA | 0.125 |
| GCCGCCGA | -0.238 |
| TGGTCAAA | -0.0326 |
| GGTCGCGA | -0.119 |
| GGGTCGCA | -0.0169 |
| ACTCATCA | 0.184 |
| ATGGAAAA | 0.0655 |
| CGCTTCCA | -0.00772 |
| AGGCCGCG | -0.24 |
| AAACGTCA | -0.105 |
| AGATCACC | 0.0774 |
| AGGGGTCC | -0.292 |
| CATGAACA | -0.12 |
| GAAACCAA | 0.0196 |
| GAAGGGCC | -0.263 |
| TACGGATA | 0.0656 |
| ACCAGTCA | -0.113 |

| Sequence | binding signal [E-score] |
| --- | --- |
| CTTACCAC | 0.0604 |
| AATGTTGT | -0.0213 |
| AACTAGTG | 0.376 |
| GCCCGAGA | -0.0951 |
| AAGCCCAT | -0.0839 |
| CGCGACAA | -0.0184 |
| TCCAGGCA | -0.138 |
| GTCGATGA | -0.0895 |
| CACACACA | -0.00487 |
| ATAGAAGG | -0.044 |
| CCTCATCG | -0.0544 |
| AGCATAAC | -0.0105 |
| AAGCTAAC | -0.0805 |
| CTTTCTCC | -0.098 |
| CAGTAGGC | -0.0831 |
| ACTAAAAG | 0.312 |
| AAACAGAA | -0.0673 |
| AATAGGAG | 0.0509 |
| AAGAAAGG | -0.107 |
| TAGCGAGA | 0.093 |
| AAGCCTAC | 0.0526 |
| CTACACTA | 0.228 |
| AAGGACCG | -0.244 |
| TATCAAAA | 0.0783 |
| CTAACTTA | 0.162 |

| Sequence | binding signal [E-score] |
| --- | --- |
| CAATCGGA | 0.101 |
| AAGACCAC | -0.184 |
| CAGGCTTA | -0.0989 |
| TATCGCGA | 0.109 |
| GAGATTTA | 0.0404 |
| TCCTATCA | 0.177 |
| ATCTGGCA | -0.134 |
| ACGACCAC | -0.0476 |
| GACGACTC | -0.306 |
| GCACTGTA | 0.0283 |
| TCGCGGAA | 0.0502 |
| ACATAACA | 0.222 |
| CGATACTA | 0.271 |
| AACGAACG | -0.166 |
| GCCAACAC | -0.042 |
| AACGTTCC | -0.101 |
| ACTCACTG | 0.00942 |
| AGATCACT | -0.0858 |
| AGTATCTC | 0.185 |
